# From the supplement of paper PMC8728848
# Some of the results follow.
# B1: Epa1-NP-mutant-E227G (Candida glabrata), Q6VBJ0 (protein)
# chain: MILNPALFLNKCVCIYTTLILLLLTNGGYATSSNDISLASKDPTTFPLGCSPDITTPKKGLSMELYSYDFRKKGSYPCWDAAYLDPNYPRTGYKSHRLLAKVDGVTGNINFYYHATKGCTPQLGHLPASYNYPKPLTMTNFTMLLYGYFRPKVTGFHTFTISADDLLFVNFGAGNAFDCCRRDSSADHFGNYQAYAIWGSKTAKDELTVHLDAGVYYPIRLFYNNRGYDGALSFTFKTESNENTVSDFSEYFFSLDDTEEGCPGLISYDSSCASVKTSKIIGIDYHTETPNENLVPITKTIYHLGIPCTGTTTTPLCGSGFYDPLANKCVTINTSSTSSVTKTTSHTTSKEVSFHSSISSQKTLIPKSIPSPYGPIKSQSIPTEMETSSEISSSEYAFSDVISTPSHSPYTKKHSSLNSSSYTSTVIHSLTSYSISQGIFSTSLSEQNITSKSSTDKFSTATSMSNNITQSSIIISQFSTNNENYTTTSMHTSSDKISTETLNNSISTTTSILFSNSSTILKNNTTIISSDKDTHYHPVNPTIVCSTNKTEIICASITQPSISNSNNHWSSSVLKFNSTTVRSTLPSSAGSNETSINVPFSSSTESNTSTSSTSTSNSKMVRSTLPSSAGSNETSISVPFSSSTESNTSTSSTSTSNSKMVRSTLPSSAGSNETSINVPFSSSTESNTSTSSTSTSNSKTVRSTPFSSAGIIMTSLSQRNNKSASSYASSNSKCYNTADSCRKVHSTPSYLLTSSYTSEGVDYDCSLVSTKLKINDTNCVNNKHTTKSCLKTSVTTTIPTLEIKTARKSSSNTIGLHSYPTSSPNKSISSAPIIGYISSFKTIKTASPSYQTSDLTTITTITSLNNPGSTAVENTHESNDKSRKTSSNDISSKHSVIKETKDAVESSNKSHQTNTLKCSSIIIASSSHNSYESLGGTTLTLTLSKVYSPQNNDTLPFLEISEVNPSRTVLPESSKMMQYLTSTEERNKTARNTIATNIVSISTFHFEGEGNAIRMGYTQLLLMLIGIIVMNIGT
# Tests used:
# Experiment in all cases: glycan array binding signal (z-score within array); higher = stronger binding
# Settings in all cases: glycan notation: IUPAC condensed, linker removed; mutation: E227G
# [1] = target: Neu5Gc(a2-8)Neu5Gc(a2-3)Gal(b1-4)GlcNAc(b1-3)Gal(b1-4)GlcNAc
# Method in brief: (§1)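 Glycan array data were curated from 3228 arrays in the Consortium for Functional Glycomics database and kept only where the protein sequence was available. Glycan names were converted to IUPAC-condensed notation, and columns mapping to the same glycan were averaged. The binding signal is a within-array Z-score, averaged across arrays of the same protein sequence at different concentrations or buffers and across linkers. Negative Z-scores can be read as non-binding.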
# [2] = target: Neu5Gc(a2-8)Neu5Gc(a2-6)Gal(b1-4)GlcNAc
# Method in brief: as §1
# [3] = target: Neu5Gc(b2-6)Gal(b1-4)GlcNAc
# Method in brief: as §1
binder,measurement,setting,value
B1,glycan array binding signal (z-score),[1],-0.291
same,glycan array binding signal (z-score),[2],-0.272
same,glycan array binding signal (z-score),[3],-0.087
